Measured values: PubChem BioAssay AID1745853 (National Center for Advancing Translational Sciences (NCATS), 2022)
The list shows a part of the results. Further columns of the screen follow, without active or inactive calls. Square brackets hold non-standard residues; d marks the D form. Peptide text beside a SMILES is read from it. pGlu = O=C1CC[C@@H](C(=O)O)N1; Thz = O=C(O)[C@@H]1CSCN1

What was measured:
Assay in all cases: Primary Screen for Target Class Profiling of Small Molecule Inhibitors of Methyltransferases
[1] = target: Glycine N-methyltransferase (Homo sapiens) (UniProt Q14749); settings: purified enzyme, MTase-Glo SAH luminescence; measured here: GNMT inhibition; at 40 µM; stronger effect = lower value
Procedure, shortened: (§1)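 Each enzyme was reacted with SAM and its substrate, with compounds tested once at 40 uM; SAH formed was read by MTase-Glo luminescence.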

[2] = target: Guanidinoacetate N-methyltransferase (Homo sapiens) (UniProt Q14353); settings: purified enzyme, MTase-Glo SAH luminescence; measured here: GAMT inhibition; at 40 µM; stronger effect = lower value
Procedure, shortened: as §1

[3] = target: Histamine N-methyltransferase (Homo sapiens) (UniProt P50135); settings: purified enzyme, MTase-Glo SAH luminescence; measured here: HNMT inhibition; at 40 µM; stronger effect = lower value
Procedure, shortened: as §1

[4] = target: Nicotinamide N-methyltransferase (Homo sapiens) (UniProt P40261); settings: purified enzyme, MTase-Glo SAH luminescence; measured here: NNMT inhibition; at 40 µM; stronger effect = lower value
Procedure, shortened: as §1

[5] = target: Phenylethanolamine N-methyltransferase (Homo sapiens) (UniProt P11086); settings: purified enzyme, MTase-Glo SAH luminescence; measured here: PNMT inhibition; at 40 µM; stronger effect = lower value
Procedure, shortened: as §1
% is set by controls: 0 for no effect and ±100 for the full control effect.

| Structure (SMILES) | activity change, negative = inhibition [1] [%] | activity change, negative = inhibition [2] [%] | activity change, negative = inhibition [3] [%] | activity change, negative = inhibition [4] [%] | activity change, negative = inhibition [5] [%] |
| --- | --- | --- | --- | --- | --- |
| Cc1cc2c(cc3n2CC(C)(C(=O)NC2CCCCCCC2)N(Cc2cccnc2)C3=O)o1 (centres undefined) | -5.93 | 0 | 6.53 | -5.24 | -2.17 |
| CCCCCC(=O)N1C[C@H](C(=O)NC)[C@H]2c3ccccc3N(CC3CC3)C(=O)[C@]21C | -0.557 | -0.025 | -0.207 | -9.13 | 10.3 |
| COCCNC(=O)C(NC(=O)c1cccc(OC)c1)C1CCN(C(=O)COC)CC1 (centres undefined) | -3.89 | -5.07 | -1.52 | -5.7 | 0.637 |
| O=[S+]([O-])(c1cccs1)N1CCCN(c2nc3ncccc3o2)CC1 | -10.7 | -4.69 | -5.34 | -18.5 | -3.74 |
| Cc1ccc(NC(=O)CSc2nnc3n(Cc4ccccc4)c(=O)c4ccccc4n23)cc1C | -5.66 | -2 | -1.77 | -9.41 | -4.85 |
| Cc1cc(CN2CCc3nc(C(C)C)nc(-c4ccc(Cl)cc4)c3CC2)no1 | -8.59 | -8.28 | -5.86 | -15.1 | -7.63 |
| COc1ccc2[nH]c(=O)c(CCC(=O)NC(C)c3cn(C)nc3C)cc2c1 (centres undefined) | -10.7 | -9.02 | -3.26 | -12.6 | -10.7 |
| Cn1cnc(S(=O)(=O)N[C@H]2CCN(C(=O)c3ccco3)[C@H](C(=O)N[C@@H](Cc3cccs3)C(N)=O)C2)c1 | 1.38 | -0.58 | 0.967 | 0.894 | -2.44 |
| COc1cccc(Nc2ccnc(-c3nnc(C)n3C3CCCCC3)c2)c1 | -7.63 | -7.34 | -9.23 | -59.5 | -10.1 |
| C=C(C(=O)O)C1CC(OC(=O)CC(C)CC)C2(C)CCCC(=C)C2C1 (centres undefined) | -2.95 | -1.02 | 9.32 | -22 | -10.2 |
| CCCn1c(=O)c2ccc(C(=O)NC3CCCCC3)cc2n2c(=O)n(Cc3cccc(C)c3)nc12 | 2 | 1.56 | 3.52 | -1.06 | -1.58 |
| O=C(CCc1nnn2c1CN(S(=O)(=O)c1ccccc1)CC2)NCc1ccccc1 | -1.46 | -2.16 | -0.044 | 2.87 | 3.43 |
| Cc1ocnc1C(=O)N1CCC2(CC1)CN(CC(C)c1ccccc1)C(=O)O2 (centres undefined) | -3.28 | -8.18 | -2.77 | -14.7 | 10.5 |
| CCc1ccc(CNC(=O)c2cc3n(n2)CC(C)(C(=O)NCCC(C)C)N(C)C3=O)cc1 (centres undefined) | 2.48 | 4.6 | 3.13 | 3.83 | 1.14 |
| C=C1C2(CCC(=O)OC2(C)C)CC(OC(=O)/C(C)=C/C)C2(C)C13OC14C(=O)OC(C)(C(=O)C12C(=O)OC4C)C3OC(C)=O (centres undefined) | 1.58 | 5.55 | 4.89 | -10.3 | 3.65 |
| COc1ccc(OC)c2c1cc1n2CC(C)(C(=O)NC2CCCCC2)N(Cc2ccccc2C)C1=O (centres undefined) | -4.18 | 0.583 | 1.27 | -0.772 | -5.02 |
| CN1C(=O)c2cc(C(=O)N3CCOCC3)nn2CC1(C)C(=O)NCc1ccc(F)cc1 (centres undefined) | 1.3 | 1.96 | -5.84 | 5.94 | 2.26 |
| COc1cc(Nc2c(C#N)cnc3cc(OCCCN4CCN(C)CC4)c(OC)cc23)c(Cl)cc1Cl | -92.9 | -93 | -92.3 | -96.4 | -97.1 |
| COc1cc(Nc2nc3c(S(=O)(=O)c4ccc(C)cc4)nnn3c3ccccc23)cc(OC)c1 | -2 | 4.97 | 4.18 | 4.3 | -3.08 |

| Structure (SMILES) | activity change, negative = inhibition [1] [%] | activity change, negative = inhibition [2] [%] | activity change, negative = inhibition [3] [%] | activity change, negative = inhibition [4] [%] | activity change, negative = inhibition [5] [%] |
| --- | --- | --- | --- | --- | --- |
| CCn1cnnc1CC1CCN(C(=O)C2CCN(Cc3nc(-c4cccc(C)c4)oc3C)CC2)CC1 | -7.74 | -4.29 | -25.3 | -26.3 | 5.79 |
| Cc1ccc(C(=O)Cn2nc3n(CC(C)C)c(=O)c4ccc(C(=O)NCC(C)C)cc4n3c2=O)cc1 | -0.088 | 1.54 | 2.69 | -5.13 | 3.2 |
| O=S(=O)(c1cccc(-c2nc(-c3ccccc3)no2)c1)N1CCc2ccccc21 | 15.3 | 0.212 | 9.6 | 1.85 | 4.85 |
| C=C[C@H]1C(O[C@@H]2O[C@H](CO)[C@@H](O)[C@H](O)[C@H]2O)OC=C2C(=O)N3CCc4c([nH]c5ccccc45)[C@H]3C[C@H]21 (some centres undefined) | -8.76 | 5.79 | 6.04 | -5.21 | 3.41 |
| Cn1c(=O)c2ccc(C(=O)NC3CCCCC3)cc2n2c(SCc3c(F)cccc3Cl)nnc12 | 0.281 | 5.58 | 4.42 | 5.02 | 3.19 |
| COc1ccc(Cl)cc1NC(=O)Nc1cc(C)nc2ccccc12 |  | -1.08 |  | -24.9 | -2.76 |
| CN(C)CCC(c1ccc(Br)cc1)c1ccccn1 (centres undefined) | 0.793 | 4 | -23.5 | -11.4 | -0.039 |
| Cc1cc(C(=O)N2CCC(Cc3nc(-c4ccccc4)n[nH]3)C2)n(C)n1 (centres undefined) | -3.28 | -4.03 | -0.759 | -11.2 | 7.96 |
| COc1ccccc1N1CCN(CCCNc2c(C)c(=O)n(C)c(=O)n2C)CC1 | -4.06 | 3.17 | -0.105 | -13 | 4.68 |
| O=C1CC[C@@H](C(=O)N2CSC[C@H]2C(=O)O)N1 ([pGlu]-[Thz]-OH) | 0.367 | 5 | 9.62 | -9.2 | 4.24 |
| CC(C)NC(=O)Cn1nc2n(Cc3ccccc3)c(=O)c3ccc(C(=O)NC(C)C)cc3n2c1=O | 0.439 | 0.237 | 6.32 | -3.74 | 2.82 |
| C[C@@H]1O[C@@H](O[C@H]2[C@H](O[C@H]3[C@H](O[C@H]4CC[C@@]5(C)C(CC[C@]6(C)C5CC=C5[C@@H]7CC(C)(C)C[C@@H](O)[C@]7(C)CC[C@]56C)C4(C)C)O[C@H](C(=O)O)[C@@H](O)[C@@H]3O)O[C@H](C(=O)O)[C@H](O)[C@@H]2O)[C@H](O)[C@H](O)[C@H]1O (some centres undefined) | -3.06 | 0.057 | -0.773 | -27.8 | 4.38 |
| COc1cc(/C=C/C(=O)OC2CC(C)=C(C(=O)O)/C2=C/CO[C@@H]2O[C@H](CO)[C@@H](O)[C@H](O)[C@H]2O)ccc1O (some centres undefined) | 4.58 | 6.73 | 12.9 | -3.8 | 10.4 |
| c1ccc(-c2ccc(C(c3ccccc3)n3ccnc3)cc2)cc1 (centres undefined) |  | -10.4 |  | -43.8 | -11 |
| CC(C)CCNC(=O)C1(C)Cn2c(ccc2-c2ccco2)C(=O)N1Cc1ccccc1Cl (centres undefined) | -3.38 | 3.36 | 2.48 | -5.5 | -2.1 |
| Cc1ccc(C)c(Cn2nc3n(CCC(C)C)c(=O)c4ccc(C(=O)NC(C)C)cc4n3c2=O)c1 | 1.26 | -0.008 | 11.3 | -2.91 | -1.95 |
| CN1c2cccnc2CN(C2CCC(CO)CC2)CC[C@H]1CO (some centres undefined) | 0.1 | 1.13 | 0.291 | 1.68 | 2.92 |
| Cc1cc(NS(=O)(=O)c2ccc3[nH]c4c(c3c2)CCCC4)ccc1Br | -1.83 | 4.55 | -2.52 | -5.57 | 1.81 |
| CC(C)CNC(=O)N(C)C1CCc2nn(C)c(=O)n2CC1 (centres undefined) | -0.104 | -0.834 | 2.75 | -3.76 | -6.03 |

| Structure (SMILES) | activity change, negative = inhibition [1] [%] | activity change, negative = inhibition [2] [%] | activity change, negative = inhibition [3] [%] | activity change, negative = inhibition [4] [%] | activity change, negative = inhibition [5] [%] |
| --- | --- | --- | --- | --- | --- |
| COc1cccc(Nc2cc3c(cn2)CN(Cc2cccnc2)CCN3)c1 | -15.6 | -8.84 | -91.6 | -20.4 | -19.2 |
| CCCn1c(=O)c2ccc(C(=O)NCC(C)C)cc2n2c(=O)n(Cc3ccc(Cl)cc3)nc12 | 1.74 | 4.12 | 4.2 | -0.119 | 0.642 |
| COc1ccc(-c2noc(-c3cccn3CC(=O)Nc3cccc(Cl)c3C)n2)cc1F | -0.622 | -2.48 | 0.532 | -3.23 | -3.69 |
| O=c1[nH]c2ccccc2n1CCN1CCN(c2cccc(C(F)(F)F)c2)CC1 | 1.47 | 10.7 | 7.32 | -13.5 | -0.818 |
| CCOC(=O)c1cn(C2CN(S(=O)(=O)Cc3ccccc3)C2)nn1 | -1.12 | -4.33 | 1.38 | -1.44 | 0.383 |
| CCC(C)NC(=O)c1ccc2c(=O)n(CC(C)C)c3nn(CC(=O)Nc4ccc(C)cc4)c(=O)n3c2c1 (centres undefined) | 2.76 | 0 | 0.341 | 1.85 | 2.74 |
| CC1(C(=O)NC2CCCCCC2)Cn2nc(-c3ccco3)cc2C(=O)N1CCc1ccccc1 (centres undefined) | 0.847 | 0 | 4.09 | 5 | -0.228 |
| O=C(CSc1nnc2n(Cc3ccccc3)c(=O)c3ccccc3n12)Nc1cccc(Cl)c1 | -8.2 | 0 | 1.19 | -10.2 | -10 |
| CCOC(=O)c1cc2n(n1)CC(C)(C(=O)NC1CCCCC1)N(c1cccc(F)c1)C2=O (centres undefined) | -0.168 | 4.07 | -4.3 | 0.399 | 0.808 |
| O=C(CCn1ccc2cc(S(=O)(=O)N3CCCC3)ccc21)NC1CCCC1 | 4.25 | 0 | 8.08 | 8.99 | 4.89 |
| CN(C)c1ccc(C(=O)NC[C@H]2O[C@@H](CO)[C@@H](O)[C@H]2N(C)CCc2ccccc2)cc1 | -5.82 | -10.3 | -7.15 | -7.06 | -6.55 |
| CCN1CCN(CCNC(=O)c2cc3n(n2)CC(C)(C(=O)NCc2ccccc2)N(C)C3=O)CC1 (centres undefined) | 2.26 | 1.74 | -7.79 | 3.01 | 2.4 |
| CCN1CCN(C2(C(=O)NCCc3ccccc3)Cc3ccccc3C2)CC1 |  | -4.51 |  | -21.5 | -6.63 |
| CCCn1c(=O)c2ccc(C(=O)NC(C)CC)cc2n2c(SCC(=O)Nc3cccc(F)c3)nnc12 (centres undefined) | -0.105 | 5.04 | 1.47 | -3.62 | -1.74 |
| O=C(NCc1ccccn1)C1CCN(Cc2cc3n(n2)CCCNC3)CC1 | -3.6 | -12.6 | -2.44 | -17.7 | -8.84 |
| CC(=O)N1CCCC(c2[nH]ccc2C(=O)NCc2cc(C)nn2C)C1 (centres undefined) | -3.88 | -2.43 | -1.71 | -5.21 | -0.274 |
| CC1(C(=O)NCc2ccccc2)Cn2c(ccc2-c2ccco2)C(=O)N1CCC1=CCCCC1 (centres undefined) | -13.1 | 1.62 | -6.72 | -11.3 | -5.61 |
| C[C@]12CCC(=O)C=C1CC[C@@H]1[C@@H]2CC[C@@]2(C)[C@H]1CC[C@]2(O)C(=O)CO | -10.2 | 2.76 | -1.18 | -6.29 | 4.81 |
| COc1ccccc1CNC(=O)C1(C)Cn2nc(-c3ccccc3)cc2C(=O)N1Cc1ccc2c(c1)OCO2 (centres undefined) | 5.82 | 4.56 | 8.06 | 2.95 | 0.138 |
